Data taken from PubChem BioAssay AID651820 (National Center for Advancing Translational Sciences (NCATS), 2012).
Out of some 340,000 compounds screened, about 12,000 (3.5%) were called active. This list was built around the results that the source calls inconclusive (neither active nor inactive); the mix of calls is not that of the screen. Calls follow the shape of the dose curve; as a rule, active = well fitted inhibition curve with a large enough effect; inconclusive = small, poorly fitted or top-dose-only effect, or another doubt; inactive = no such curve, though single readings can be large or run the other way. Potencies of inconclusive entries are left out as doubtful fits.

Test: qHTS Assay for Inhibitors of Hepatitis C Virus (HCV)
Details: Huh7.5.1 HCVcc-Cre (HCVcc is cell-culture hepatitis C virus) infection, luciferase reporter, 44 h; series mostly up to 41.8 µM
Summary of the method: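 After 44 h co-culture of compound, cells and HCVcc-Cre (~0.5 moi), substrate is added for 15 min at room temperature and luciferase measured over 15 sec. Cells were seeded at 1,000/well and pre-cultured 4 h.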
Potency is read from the fitted curve at half-maximal effect; tags tell the direction and shape of the fitted curve.

Row | SMILES | Potency
1 | O=C(Nc1cccc(S(=O)(=O)N2CCOCC2)c1)c1cc2c(s1)CCC2 | inconclusive [inhibitor, partial curve]
2 | Nc1ncc(-c2ccccc2)n1CC1CCCO1 (stereo not drawn) | inconclusive [inhibitor, single point]
3 | Cc1cc(/C=C2\SC(=S)N(Cc3ccco3)C2=O)c(C)n1-c1ccccc1 | inconclusive [inhibitor, partial curve, poor fit]
4 | C=C1C(=O)C23CCC4C(C)(C(=O)OC)CCCC4(C)C2CCC1(O)C3 (stereo not drawn) | active: 3.16 µM
5 | O=C(Cn1cccc(C(F)(F)F)c1=O)c1ccc(Cl)cc1 | inactive
6 | COc1cc(/C=N/NC(=O)c2cc(-c3cccc(OC(C)C)c3)nc3ccccc23)ccc1O | inconclusive [inhibitor, single point]
7 | CN(C)c1ccc(C(=O)c2ccccc2C(=O)O)cc1[N+](=O)[O-] | inactive
8 | COc1ccc(OC)c(-c2csc(NC(=O)COC(=O)C3CC3)n2)c1 | active: 10 µM
9 | CCOc1ccccc1N(CC(=O)Nc1cc(OC)ccc1OC)S(=O)(=O)c1ccccc1 | inconclusive [inhibitor, single point]
10 | Cc1ccc(OCCOC(=O)c2c(-c3ccccc3)noc2C)cc1 | inconclusive [inhibitor, partial curve]
11 | COc1ncccc1C(=O)NC1CCCc2c1cnn2-c1cc(C)cc(C)c1 (stereo not drawn) | inactive
12 | COc1ccc(OCc2cc(C(=O)NC(C)c3csc(C)n3)no2)c(Cl)c1 (stereo not drawn) | inactive
13 | C/C(=N/NC(=O)c1cc(-c2cccc([N+](=O)[O-])c2)n[nH]1)c1cccc(O)c1 | inactive
14 | Cc1ccc(NC(=O)COc2coc(CN3c4ccccc4CC3C)cc2=O)c(C)c1 (stereo not drawn) | inconclusive [inhibitor, partial curve]
15 | Cc1ccc(NC(=O)Nc2ccc3c(c2)CCC3)c(C)c1 | inactive
16 | COC(=O)c1cc(C(=O)OCC(=O)N2c3ccccc3NC(=O)C2(C)C)cc([N+](=O)[O-])c1 | inconclusive [inhibitor, single point]
17 | CCN(CC)S(=O)(=O)c1ccc(-c2nnc(SCC(=O)c3ccc(OC)cc3)o2)cc1 | inactive
18 | CCCN1C/C(=C/c2cccc([N+](=O)[O-])c2)C(=O)/C(=C/c2cccc([N+](=O)[O-])c2)C1 | inconclusive [inhibitor, full curve, poor fit]
19 | CCSc1nc2sc3c(c2c2[n+]1CC(CBr)O2)CCCC3 (stereo not drawn) | inconclusive [inhibitor, single point]
20 | COc1ccc(NC(=O)CN(C)C(=O)c2ccccc2CCc2ccccc2)cc1 | inconclusive [inhibitor, single point]
21 | Cc1ccc(COn2c(-c3ccc(Cl)cc3Cl)nc3ncccc32)cc1 | inconclusive [inhibitor, single point]
22 | CC1(C)N=C(N)N=C(N)N1c1cccc(C#N)c1 | inconclusive [inhibitor, full curve, poor fit]
23 | COc1cccc(CNC2CCCc3ccccc32)c1OC (stereo not drawn) | inactive

Row | SMILES | Potency
24 | CCOc1ccc(NC(=O)CN(C)C(=O)C2=COCCO2)cc1OCC | inactive
25 | CC(NC(=O)[C@H](C)N1C(=O)N2CCc3c([nH]c4ccccc34)[C@@]2(C)C1=O)c1ccccc1 (stereo partly drawn) | inconclusive [inhibitor, partial curve]
26 | CCc1ccc(NC2CC(=O)N(CCc3ccc(OC)c(OC)c3)C2=O)cc1 (stereo not drawn) | inactive
27 | O=C(Nc1ccc2nc(-c3ccccc3)oc2c1)c1ccco1 | active: 10 µM
28 | COc1ccc(C2=NN(C(=O)c3cccc([N+](=O)[O-])c3)C(c3cccc([N+](=O)[O-])c3)C2)cc1 (stereo not drawn) | inconclusive [inhibitor, full curve, poor fit]
29 | Cc1nn(-c2ccccn2)c2c1C(c1ccsc1)C1=C(CCCC1=O)N2 (stereo not drawn) | inconclusive [inhibitor, single point]
30 | CN(C)CCCNc1c2c(nc3ccccc13)CCC2 | inconclusive [inhibitor, single point]
31 | O=C(O)c1cccc(-n2cccc2/C=C2/NC(=O)N(c3ccc(Cl)cc3)C2=O)c1 | inactive
32 | CC1CCCCN1Cc1c(O)ccc2c(=O)c(-c3ccc(Cl)cc3)coc12 (stereo not drawn) | inconclusive [inhibitor, single point]
33 | CCCNS(=O)(=O)c1ccc(CCC(=O)N2CCOCC2)cc1 | inactive
34 | O=C1C2C3C=CC(CC3)C2C(=O)N1c1ccc(Cl)cc1Cl (stereo not drawn) | inactive
35 | CCOc1ccccc1NC(=O)COC(=O)C(CC(C)C)N1C(=O)C2CC=CCC2C1=O (stereo not drawn) | inconclusive [inhibitor, full curve]
36 | COc1ccccc1NC(=O)C1CCCN(S(=O)(=O)c2ccc3c(c2)CC(C)N3C(C)=O)C1 (stereo not drawn) | inconclusive [inhibitor, single point]
37 | COc1ccccc1CN(C)C(=O)c1cc(-c2cccs2)nc2ccccc12 | inconclusive [inhibitor, partial curve]
38 | CCOc1ccc(NC(=S)Nc2cccc3cnccc23)cc1 | inconclusive [inhibitor, partial curve]
39 | Cc1cccc(C(=O)Nc2ccc(C(=O)c3ccccc3)cc2)c1 | inconclusive [inhibitor, partial curve]
40 | CCC(=NCCO)c1c(O)n(C2CCCCC2)c(=O)[nH]c1=O | inactive
41 | S=C(Nc1ccc2nc(-c3ccccn3)c(-c3ccccn3)nc2c1)N1CCCCC1 | inconclusive [inhibitor, full curve]
42 | CCOc1ccc(NC(c2ccccn2)c2oc(CO)cc(=O)c2O)cc1 (stereo not drawn) | inactive
43 | COCC(C)NC(=O)c1ccc2nc(-c3ccccc3)c(-c3ccccc3)nc2c1 (stereo not drawn) | inconclusive [inhibitor, partial curve]
44 | CON(C)C(=O)CCC1CCCN1C(=O)OC(C)(C)C (stereo not drawn) | inactive
45 | CCOc1ncccc1C(=O)NCCCSc1ccccc1 | inactive
46 | Cc1[nH]c(=O)[nH]c(=O)c1/C=N/NC(=O)[C@@H](N)CC(C)C | inconclusive [inhibitor, single point]

Row | SMILES | Potency
47 | COc1cc(C(C)=O)ccc1OCC(O)CN1CCN(c2ccc(C)cc2C)CC1 (stereo not drawn) | inconclusive [inhibitor, partial curve]
48 | CCCCCCC(=O)N/N=C/c1ccco1 | inconclusive [inhibitor, single point]
49 | Cc1nn(C)c(C)c1Nc1ccc(N2C(=O)C3C4C=CC(C4)C3C2=O)cc1[N+](=O)[O-] (stereo not drawn) | inconclusive [inhibitor, single point]
50 | CC(C)N(C)S(=O)(=O)c1ccc(NC(=O)C2=COCCO2)cc1 | inactive
51 | CCN1CCN(CCNC(=O)c2ccc(/C=C3/Sc4ccccc4N(Cc4cccc(C)c4)C3=O)cc2)CC1 | active: 8.91 µM
52 | CCOc1cc(/C=C2\CN(C)C/C(=C\c3ccc(O)c(OCC)c3)C2=O)ccc1O | active: 22.4 µM
53 | CN(C)CCNc1nc(-c2ccco2)c2c(c1C#N)CC(C)(C)OC2 | inconclusive [inhibitor, single point]
54 | CN(C)c1nc(N(C)C)c2cnn(C)c2n1 | inconclusive [inhibitor, single point]
55 | O=C(NCCCN1CCOCC1)c1sc2cc([N+](=O)[O-])ccc2c1Cl | inconclusive [inhibitor, partial curve, poor fit]
56 | COc1ccc(OC)c(/C=N/NC(=O)c2ccc(Cn3cc([N+](=O)[O-])cn3)o2)c1 | inconclusive [inhibitor, single point]
57 | CC1=C(C(=O)c2ccccc2)C(c2ccc(OC(F)F)cc2)NC(=S)N1 (stereo not drawn) | inconclusive [inhibitor, partial curve, poor fit]
58 | COc1cc2c(cc1NC(=O)c1cc(-c3ccncc3)nc3ccccc13)oc1ccccc12 | inconclusive [inhibitor, full curve]
59 | COc1ccc(S(=O)(=O)N2CCCCCC2)cc1NC(=O)CN1C(=O)NC(C)(c2ccccc2)C1=O (stereo not drawn) | inconclusive [inhibitor, full curve]
60 | Cc1ccc(Cl)cc1Nc1nc(-c2cccnc2)cs1 | inconclusive [inhibitor, single point]
61 | CCCC(=O)Nc1ccc(C(=O)Nc2cc(C(F)(F)F)ccc2Cl)cc1 | inconclusive [inhibitor, full curve]
62 | CCOc1ccc(C(C)=O)cc1COc1ccc(C)nc1[N+](=O)[O-] | inconclusive [inhibitor, partial curve]
63 | CC(C)c1ccc(-c2nn(-c3ccccc3)cc2C2C(C#N)=C(N)OC3=C2C(=O)CC(C)(C)C3)cc1 (stereo not drawn) | inconclusive [inhibitor, single point]
64 | Cc1nc(NCCNC(=O)c2ccco2)c2c(C)c(C)sc2n1 | inconclusive [inhibitor, full curve]
65 | CCOc1ccc(S(=O)(=O)NCc2cccnc2)cc1C(C)C | inconclusive [inhibitor, partial curve]
66 | CCOc1ccc(CNC(=O)CCCn2nc(C)c3c(C)n(-c4ccc(C)cc4)nc3c2=O)cc1 | inconclusive [inhibitor, single point]
67 | COc1ccc(CNCCc2ccc(Cl)cc2)cc1OCc1ccccc1 | inconclusive [inhibitor, single point]
68 | COc1ccc(S(=O)(=O)Nc2cc(Cl)ccc2OC)cc1 | inconclusive [inhibitor, partial curve, poor fit]
